Experimental data reported in article PMC12136788.
Some of the results follow.

T1: UNK ZnF1-3 (human, UniProt Q9C0B0 31-174)
T1 sequence: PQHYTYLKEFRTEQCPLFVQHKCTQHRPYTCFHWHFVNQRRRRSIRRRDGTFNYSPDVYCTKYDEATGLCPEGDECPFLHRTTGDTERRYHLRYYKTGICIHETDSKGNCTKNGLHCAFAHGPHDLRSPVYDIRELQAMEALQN

B1: chr8:95500983:95500984:-_ENSG00000164944_ENST00000437199|hu_hu|hu_hu_hu_mus_True|48_48 (ssRNA)
RNA: GGGAGUUCUACAGUCCGACGAUCAGAACACAUCUAUCGAGUAAAGGACCGUACAUGACGGCCUCUACCACUGCCUCCACUAACAAAACUUUCCUCUGAGCCUCCACUGCCGCUAUUUGUACUAGCCCAGGACGGUCCCAGGCCCAACAGAGGAUUGAGCAUCA
B2: 196581701_196592893_2262_CDS_ENSG00000196950_ENST00000359634|human|control|control (ssRNA)
RNA: GGGAGUUCUACAGUCCGACGAUCUGCAAAAUCUCCUAAUUCAUGUGGCAGUUCAUGACAGAAGACGGCUAUAGAAGUACUGAUUCCUCCUGUCAAUCCAGCACUGAAAGCUGCACCAAUUGCGAGCCCAUCACUGAAGUUGUGCAACAGAGGAUUGAGCAUCA
B3: chr10:133753640:133753641:+_ENSG00000175470_ENST00000482010|hu_hu|FALSE|FALSE (ssRNA)
RNA: GGGAGUUCUACAGUCCGACGAUCAGUUUUAUCAUUUGUAGACAGUAGAAAAUGAGCAGCAUUCUGUUGUGGUAACCACCUAAUUUUAUUAAUUUUUUCCUCAAUUUCUAGACUUUUCAAAUAGUCAAACUCCGGUUCAUGACUCAACAGAGGAUUGAGCAUCA
B4: 35547811_35555593_947_CDS_ENSG00000101347_ENST00000262878|human|control|control (ssRNA)
RNA: GGGAGUUCUACAGUCCGACGAUCCUUUAUAAAGCAAAUAUCUUCUUCAGGGAUGAGACCAUAUUGUUCCAUGACAGGCUUAAUUCCAUUAGAAUUAAUAAGGUGCUCAAACAUCAUAACUGAGCCUUGUUCAUGCGUCCAUUUCAACAGAGGAUUGAGCAUCA
B5: chr3:176740097:176740098:-_ENSG00000177565_ENST00000430069|hu_mus|hu_hu_hu_mus_True|18_78 (ssRNA)
RNA: GGGAGUUCUACAGUCCGACGAUCUGUUUUGUAUACCACAAAAGGAGGCACUUUCAGUAUCUGUAAAAGGUGUUUAGUCCUAAAACAUACUCACCUAGAGGAUAACUCAGGAAAACAUCAAUACAAUCUCUAAGACCUACUCCACAACAGAGGAUUGAGCAUCA
B6: chr19:15979567:15979568:-_ENSMUSG00000024640_ENSMUST00000025542|mus_mus|FALSE|FALSE (ssRNA)
RNA: GGGAGUUCUACAGUCCGACGAUCACAGGCUAAUUUUAAACCCUAGGCUCCCCAUCAGAAUGUUUAAAAGCAGCACCUGACUAAAAAAGCAAGCAGAAUAAUUCACAGGCAAUGAAUGGCUUAGAUGACUUAGGACUUUAAUGUCAACAGAGGAUUGAGCAUCA
B7: chr8:74527950:74527951:-_ENSG00000040341_ENST00000355780|hu_hu|FALSE|FALSE (ssRNA)
RNA: GGGAGUUCUACAGUCCGACGAUCUUCUUUAAUAACCUCAAAACUGACAGGCAUAUUUCGCUUCAGAGCAAUUUCAAACACUAAGCUGAUCUCAGACUUAUUUGCAUCUUUGUCAUCAUCCACAUCCUUUCCUGAUUCACCAUUCAACAGAGGAUUGAGCAUCA
B8: chr5:138643207:138643208:+_ENSG00000015479_ENST00000510056|hu_mus|FALSE|FALSE (ssRNA)
RNA: GGGAGUUCUACAGUCCGACGAUCCAUCCUUCCAAGAGAUGCUGGCAUACUUAAAGACUGGGUAGCAGCAGCAAGAAGGCCUAUUCCUGCUGCAGACAGGUCACGCCCAUGACCCUGUGAAUCCCUACCGAGAGAUGACUGCUGCAACAGAGGAUUGAGCAUCA
B9: 134880011_134880840_2373_CDS_ENSMUSG00000028809_ENSMUST00000105861|mouse|control|control (ssRNA)
RNA: GGGAGUUCUACAGUCCGACGAUCUGGUGAGGCAGCCUUUUUUAUCUUUUUGGGCUCCGGGGUCCUGGAGACUCUCCUAAUAGGCCUAGUACUUGGAGAUGGGGACUGCCUUCCUUGGGGUGACGCUGAAGCUCCUCUUCGUACCAACAGAGGAUUGAGCAUCA
B10: chr4:184596322:184596323:+_ENSG00000168538_ENST00000334690|hu_mus|motif|central (ssRNA)
RNA: GGGAGUUCUACAGUCCGACGAUCGGCGUUUUGUGUAUCUUGUUUCAACUCACUGAAGAAAGCUAUUUUAAACUGAUGUCGGACAAACAAAAGCUGGUGUGUUGUUUUAUUCAAAAAUUCCUUAUGAGAUUUCACUCUUCUGAUCAACAGAGGAUUGAGCAUCA
B11: 38126866_38126986_902_3pUTR_ENSG00000120784_ENST00000514101|human|control|control (ssRNA)
RNA: GGGAGUUCUACAGUCCGACGAUCCCACAUUCUUUACAUUCAUAGGGUUUCUCACCAGUAUGAAUUCUUUGAUGGAAAGUAAGUUGUUGUCGUACUCUAAAAGCCUUCCCACAUUCCCCACAUUCGUAGGGUUUCUCUCUGUUACAACAGAGGAUUGAGCAUCA
B12: chr18:77179482:77179483:+_ENSMUSG00000090000_ENSMUST00000026487|mus_hu|FALSE|FALSE (ssRNA)
RNA: GGGAGUUCUACAGUCCGACGAUCGUCCUGGAGAGUUACUGCCUUUCAUGAUCUGAUCUUUUGUAAUGAAACUACAAGUGCAACAUUAAAAAAAAAAACAGAUAAAUAGAAACCCUGGUUUUAUUUUCAGCUUUACAUUUUUGACAACAGAGGAUUGAGCAUCA
B13: 32197609_32197729_349_CDS_ENSG00000165322_ENST00000344936|human|control|control (ssRNA)
RNA: GGGAGUUCUACAGUCCGACGAUCGUUUUCAUCUGGCUUGACUUGCCACCAGUCAUCAUUGGUCUUUUUCACCAAGAUGUACCUCUCCCCUUGUUUUAUCACAAUCUUUCUGUCCUUUGCUUCAUAUUCAUAAUCAUAUUCCACCAACAGAGGAUUGAGCAUCA
B14: chr5:128448638:128448639:+_ENSG00000066583_ENST00000173527|hu_mus|hu_hu_hu_mus_False|28_78 (ssRNA)
RNA: GGGAGUUCUACAGUCCGACGAUCGGCACUCGCCUUAAUUAGGUUCUGAAUUUCCUUGAAUUUUGGAUGGUCUUUGUCAGCCACCAGCUGUAGGAGGACAGCCUCACUCGUGGUCACGAUGAUCCCAGUGCGGGCAAGACGCUCCAACAGAGGAUUGAGCAUCA

Target: T1, UNK ZnF1-3
Assay: nsRBNS (natural sequence RNA bind-n-seq); RBNS binding buffer (assumed for nsRBNS): 25 mM Tris pH 7.5, 150 mM KCl, 3 mM MgCl2, 0.01% Triton X-100, 500 ug/ml BSA, 20 U/ml SUPERase-In, 4 C; UNK is unkempt and MSI1 is Musashi-1; names of the RNAs are library labels; protein concentration not given here; high values mean tight binding

Row | Binder | binding signal [enrichment R]
1 | B1 | 1.08
2 | B2 | 1.09
3 | B3 | 1.52
4 | B4 | 1.15
5 | B5 | 0.898
6 | B6 | 2.3
7 | B7 | 1.21
8 | B8 | 0.852
9 | B9 | 0.714
10 | B10 | 1.15
11 | B11 | 0.651
12 | B12 | 0.969
13 | B13 | 0.413
14 | B14 | 0.92
